PubChem BioAssay AID1768 (National Center for Advancing Translational Sciences (NCATS), 2009)
Values joined by “and” are separate entries in the source; they are usually repeats but may differ in a detail not shown here. Equal entries are not always repeated. Hit rate of the full screen: of about 270,000 compounds, about 620 (0.23%) were called active. The shares of active, inactive and inconclusive entries below differ from those in the screen. The call rests on the fitted dose curve; in most records, active means well fitted inhibition curve with a large enough effect in the polarisation, with a control signal flat (not every such curve was filed as active); inconclusive means small, poorly fitted or top-dose-only effect, or effect the other way, or a change in a side signal; inactive means no such curve, though single readings can be large or run the other way; the % refers to the polarisation. A potency beside an inconclusive call is a rough fit, not a confirmed value. A note “side channel” means that the fit belongs to a control or component signal, not to the main read-out.

molecular target: Menin (Homo sapiens) (UniProt O00255); experiment: qHTS Assay for Inhibitors Targeting the Menin-MLL Interaction in MLL Related Leukemias: Competition With Texas Red Labeled MLL-derived Mutant Peptide; conditions: fluorescence polarization; series mostly up to 61.6 µM
Potency means the concentration at half of the fitted maximal effect; tags describe the fitted curve by direction and shape or compound fluorescence and quenching.

UniProt O00255, sequence (O00255 whole entry, looked up): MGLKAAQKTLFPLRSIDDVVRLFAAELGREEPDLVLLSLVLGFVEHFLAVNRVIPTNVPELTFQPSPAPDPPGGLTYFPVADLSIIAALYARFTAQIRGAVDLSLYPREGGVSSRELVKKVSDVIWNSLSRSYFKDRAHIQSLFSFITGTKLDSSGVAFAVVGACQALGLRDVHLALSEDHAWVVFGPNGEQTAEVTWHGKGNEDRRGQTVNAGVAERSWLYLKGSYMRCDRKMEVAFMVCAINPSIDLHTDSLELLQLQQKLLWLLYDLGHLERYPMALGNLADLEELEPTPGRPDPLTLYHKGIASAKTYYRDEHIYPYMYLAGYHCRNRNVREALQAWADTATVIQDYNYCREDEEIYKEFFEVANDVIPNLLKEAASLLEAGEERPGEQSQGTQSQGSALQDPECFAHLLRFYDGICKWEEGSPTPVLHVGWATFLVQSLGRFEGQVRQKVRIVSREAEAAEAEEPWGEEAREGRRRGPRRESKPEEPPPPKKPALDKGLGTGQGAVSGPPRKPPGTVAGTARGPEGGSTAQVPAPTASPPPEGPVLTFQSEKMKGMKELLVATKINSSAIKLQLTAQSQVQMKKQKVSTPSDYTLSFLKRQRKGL

Potency, inconclusive:
COCCCN=C1NN=C(c2cc(C)n(-c3ccccc3F)c2C)CS1 22.4 µM [inhibitor, single point], O=C(O)C(Cc1ccccc1)Nc1ccc([N+](=O)[O-])cc1[N+](=O)[O-] (configuration not stated) 20 µM [quencher, side channel, single point], CCN(CC)C(=O)CSc1nnc(-c2ccc(S(=O)(=O)NCc3ccccc3Cl)cc2)o1 28.2 µM [fluorescent, side channel, single point], COc1cccc(CN(C)CC(O)COC(c2ccccc2)c2ccccc2C)c1 (configuration not stated) 0.708 µM [inhibitor, full curve, poor fit], CCCCn1c(N)c(N(CCC(C)C)C(=O)CSc2nnc(Nc3ccccc3)s2)c(=O)[nH]c1=O 25.1 µM [fluorescent, side channel, partial curve], Cc1cc([N+](=O)[O-])ccc1NC(=S)NC(=O)Cc1ccccc1 25.1 µM [quencher, single point], CC1(C)OC(C)(C)/C(=C/Nc2ccc(O)cc2)C1=O 3.16 µM [inhibitor, full curve], CCC1(C)Cc2ccccc2-c2nc(SC)[nH]c(=O)c21 (configuration not stated) 20 µM [fluorescent, side channel, partial curve], CC(=O)c1cccc(Nc2nc(-c3cccc([N+](=O)[O-])c3)cs2)c1 8.91 µM [quencher, side channel, partial curve], COc1cc(NCCCC(C)N)c2ncccc2c1 (configuration not stated) 28.2 µM [inhibitor, partial curve, poor fit] and 39.8 µM [fluorescent, single point], O=C(NNS(=O)(=O)c1ccc(F)cc1)c1cc(Cl)ccc1O 28.2 µM [inhibitor, partial curve], CCCn1nc2cc(C(=O)NC3CCc4ccccc43)ccc2c1OCC (configuration not stated) 39.8 µM [inhibitor, single point], COc1ccc(CNC[C@@H](CCCCN(C)Cc2ccc(OC)cc2)N2C[C@H](c3ccccc3)N(CCc3ccc(Cl)c(Cl)c3)C(=O)C2=O)cc1 1.26 µM [fluorescent, side channel, full curve, poor fit], Cc1cc(C)c2c(N)c(-c3nc4ccccc4[nH]3)sc2n1 39.8 µM [quencher, side channel, single point], Cc1ccc(-c2csc(-c3c[nH]c4ccccc34)n2)c(C)c1 10 µM [quencher, side channel, partial curve], O=S1(=O)Nc2c(ccc3cccnc23)-c2ccccc21 39.8 µM [quencher, side channel, single point], O=c1c2c([nH]n1-c1ccccc1)CCCC2 25.1 µM [inhibitor, partial curve], C/C(=N\Nc1ccc([N+](=O)[O-])cc1)c1cccc(N)c1 25.1 µM [quencher, side channel, partial curve], Cc1onc(-c2ccccc2)c1C(=O)Nc1nc(-c2ccccc2)cs1 15.8 µM [inhibitor, single point], Cc1ccc(CNC(=O)COC(=O)c2ccc(S(=O)(=O)N(C)C)cc2)cc1 39.8 µM [fluorescent, side channel, single point], Cc1ccc(C)c(NC(=O)C2CC3c4ccccc4C2c2ccccc23)c1 (configuration not stated) 31.6 µM [fluorescent, side channel, single point], COc1cc(C)c(CC/C(C)=C/C=C/C(C)=O)c(C)c1C 28.2 µM [fluorescent, side channel, partial curve], Cc1cccn2c(CNCC3OCCc4ccccc43)c(C(=O)N3CCCCC3)nc12 (configuration not stated) 15.8 µM [fluorescent, side channel, partial curve], CN(C)C(=O)CSc1nc(-c2ccccc2)c(-c2ccccc2)o1 7.08 µM [fluorescent, side channel, partial curve], COC(=O)/C=C1\SC(=NC(=O)c2ccc(C)cc2)NC1=O 14.1 µM [quencher, side channel, partial curve], O=C(NNc1ccc([N+](=O)[O-])cc1[N+](=O)[O-])c1ccco1 39.8 µM [quencher, side channel, single point], Cc1nnc(NC(=O)c2cccc(NC(=O)C(C)C)c2)s1 8.91 µM [inhibitor, partial curve, poor fit], Cn1c(=O)c(C(=O)NNC(=O)c2ccccc2Br)c(O)c2ccccc21 25.1 µM [quencher, partial curve], O=C(CSc1n[nH]c(=O)n1Cc1ccccc1)Nc1ccc(F)c(F)c1F 2 µM [quencher, side channel, partial curve], Cc1sc(NC(=O)c2ccco2)c(CN2CCN(c3ccc(F)cc3)CC2)c1C 4.47 µM [fluorescent, side channel, full curve], O=C(Cn1ccc(=O)[nH]c1=O)Nc1ccc(C(=O)O)c(O)c1 12.6 µM [inhibitor, partial curve], Cc1ccc(NC(=S)N(Cc2cccc(Br)c2)CC2CCC(C(=O)O)CC2)cc1Cl (configuration not stated) 22.4 µM [quencher, side channel, partial curve], CC(C)OC(=O)c1sc2nc(-c3ccccc3)ccc2c1N 2.82 µM [quencher, side channel, single point], CCOc1cccc2c1OC1(C)CC2NC(=O)N1Cc1ccccc1 (configuration not stated) 39.8 µM [fluorescent, side channel, single point], O=C(O)Cc1ccc2ocnc2c1 6.31 µM [inhibitor, single point], Cc1cccc2c1-c1sc(C(=O)Nc3nccs3)cc1CO2 7.94 µM [quencher, side channel, partial curve], N=C1C(c2nc3ccccc3[nH]2)=C(O)CN1NC(=O)c1c[nH]c2ccccc12 17.8 µM [quencher, side channel, partial curve], N#C/C(=C\Nc1ccc2cn[nH]c2c1)c1nc(-c2ccc(Cl)cc2)cs1 11.2 µM [quencher, side channel, partial curve], CC(=O)Oc1c(C)c(C)c2c(c1C)CCC(C)(CCCC(C)CCCC(C)CCCC(C)C)O2 (configuration not stated) 28.2 µM [inhibitor, single point], CCCCSc1nnc(-c2ccc(C)cc2)n1C 3.98 µM [inhibitor, full curve, poor fit], COc1ccc(C(O)(C2CCCCC2)C(CN2CCOCC2)c2ccccc2)cc1 (configuration not stated) 12.6 µM [fluorescent, side channel, partial curve], COc1ccc(C2NC(=O)NC(c3ccccc3)=C2c2nc3ccccc3s2)cc1 (configuration not stated) 25.1 µM [fluorescent, side channel, partial curve], O=C(Cn1ccc(C(F)(F)F)n1)N=Nc1c(O)[nH]c2ccccc12 17.8 µM [quencher, side channel, partial curve], O=C(O)c1ccc(N=c2oc3cc(O)ccc3cc2C(=O)NCc2ccccc2)cc1 14.1 µM [quencher, partial curve], O=C1NC(=O)/C(=C/c2cccc([N+](=O)[O-])c2)N1 35.5 µM [quencher, side channel, single point], COc1ccc(-c2[nH]c3ccccc3c2SCCNC(=O)c2ccccc2)cc1 12.6 µM [quencher, side channel, partial curve], CNC(=O)COc1ccc(S(=O)(=O)N2CCCC2)cc1 39.8 µM [inhibitor, single point], COc1ccc(C2CC(c3ccccc3)=NN2c2ccccc2)c(C(=O)O)c1OC (configuration not stated) 35.5 µM [quencher, side channel, single point], Cc1c(C(=O)Nc2ccc(N3CCOCC3)cc2)oc2ccccc12 39.8 µM [quencher, side channel, single point], COc1ccccc1N=CC1=C(O)CC(c2ccccc2)CC1=O (configuration not stated) 39.8 µM [fluorescent, side channel, single point], Cc1nc(N[C@@H](Cc2ccccc2)C(=O)O)c2oc3ccccc3c2n1 20 µM [inhibitor, single point]

Potency, inactive:
O=C(CCN1CCN(c2ccccc2)CC1)N/N=C/c1ccccc1O, Cc1noc(NS(=O)(=O)c2ccc(NC(=O)CSc3nc4ccccc4[nH]3)cc2)c1C, CCOC(=O)CC(C(=O)OCC)C1CCCCC1=O (configuration not stated), O=C(NC1CCCCC1)c1ccc(CS(=O)(=O)Cc2ccccc2F)o1, Cc1cc(NC(=O)c2ccccc2Cl)no1, COc1cc(CNc2ccc3[nH]c(=O)[nH]c3c2)ccc1OCc1ccccc1F
